Measured values as given in the supplement of paper PMC5499739.
The full ranking holds about 16,000 sequences; the median of “Z-score” is about -0.37, and the highest 2% start at about 3.1. Some of the results follow.

test system: RBM10 RRM1-ZnF-RRM2 (GST-tagged construct); test: RNAcompete 7-mer binding Z-score; higher = stronger binding preference
Method: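 RNAcompete: 20 pmol GST-tagged RBM10 RNA-binding constructs were incubated with a designed RNA pool of about 241,000 sequences up to 41 nt (1.5 nmol) on glutathione beads for 30 min at 4 °C and washed. Bound RNAs were identified by microarray hybridisation. Each RNA 7-mer is scored by a one-sided Z-score of its enrichment, computed over probes that contain the 7-mer within longer pool sequences.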

Sequence | RNAcompete 7-mer binding Z-score
AUGGGCC | 1.33
AGCAUUU | -0.726
GUUCACA | -0.519
CGCACCC | -0.748
UCACCUG | -0.755
GGGCGGG | 3.52
ACACUAG | -0.169
GGUGAGA | 2.68
UUCCUUU | -0.781
UCAUCGG | -0.103
CGUACCC | -0.551
UCCGUGU | -0.588
UUGCUAG | -0.333
GAACUUU | -0.632
CCAUCAU | -0.817
GCGAAUC | -0.26
AAUGUAC | 0.0313
UACGACU | -0.657
GUUCGGG | 1.51
GAGCCCC | -0.581
UUACAAU | -0.409
UGUCCAU | -0.675
CACGUUA | -0.406
CGAGUUU | -0.562

Sequence | RNAcompete 7-mer binding Z-score
CAAAACC | -0.533
AUUGCAA | -0.318
CAGGCUU | -0.497
UUAGAGA | 0.319
GAUCUGG | 0.246
GCGCGUC | -0.238
AGGUACU | 0.0823
UUGCAAA | -0.428
AAGCUCA | -0.635
GCAAGAC | -0.129
UGCUCUG | -0.901
UGCCGCC | -0.694
UCCGCUC | -0.599
AUUUGUC | -0.744
AGGAAGA | 1.64
CUAAUCA | -0.592
UUGCCGA | -0.672
CGGGGGA | 2.53
UAAAAGG | 1.38
AUCGCAU | -0.522
CUGUAUC | -0.697
UAUUGCU | -0.777
UCAGGCA | 0.636
CCUGAUC | -0.927

Sequence | RNAcompete 7-mer binding Z-score
GCCCAUG | -0.639
CUUCUGC | -0.959
AUACUUA | -0.551
UCACAAG | -0.256
UUACACA | -0.544
UAGAUAU | -0.154
UUAUACG | -0.53
UUAUCGG | -0.0889
CCUCCUU | -0.916
GUUUCUU | -0.551
ACAAUAA | -0.114
AAAGGAG | 3.75
AGCGUGG | 2.39
GGAUUUC | -0.0161
AGGAGUC | 0.836
AGCGCUG | -0.0889
ACAGUCC | -0.741
UUUAUCA | -0.821
CUCAGGC | -0.424
CAACCGC | -0.741
UUUAGUU | -0.497
GAAUGUC | -0.395
UCCAGUU | -0.577
ACGAUUU | -0.661

Sequence | RNAcompete 7-mer binding Z-score
UUAGAUA | -0.377
UGACGGA | 1.01
AUUUUGU | -0.657
GGGUUUC | 1.59
CAACCGG | -0.176
GUUUCCC | -0.592
UUCGCGA | -0.65
UUCCCGG | -0.613
CGGAUAA | 0.862
AUCCGCA | -0.799
CGUGUAA | 0.0058
AGGCGAA | 1.21
UAAACGU | -0.439
UUGUCUG | -0.737
GGACGUG | 1.98
CUCGUGG | 0.0495
GUGUAGC | 0.359
AGUACUG | 0.00216
CUGUAAC | -0.704
UUAACCG | -0.65
UUGGAAC | 0.603
GCAUCUA | -0.606
GGAUACC | 0.574
AAUCAUG | -0.0525

Sequence | RNAcompete 7-mer binding Z-score
GAACAAU | 0.319
AAAACCA | -0.307
UAUAGGA | 1.12
UUAAUCG | -0.577
GAGUGCA | 0.676
GGAGCGC | 1.24
AAACGUG | 0.428
CUAACGA | -0.566
UAAGUCG | -0.242
AUUAAGU | -0.107
UACGACC | -0.752
AGGAGUU | 1.52
GUACAGG | 2.73
GGCAUCU | -0.333
AAGUCUG | -0.522
GUAACCG | 0.199
GGCACCG | 0.246
GAGCGGC | 1.42
GAGUCUC | -0.267
UAGCGCA | -0.446
GCUCACC | -0.785
CUAGUGC | -0.486
CGGCCGG | -0.114
AUUGAGC | -0.078

Sequence | RNAcompete 7-mer binding Z-score
AGCCUUG | -0.89
AAGCCGG | 0.0349
AGAUGGA | 2.92
UUCCCAU | -0.792
GUCAUUC | -0.635
UAGCGUG | 0.173
GAUCGUA | -0.227
CAAUUGC | -0.566
CCUCGCA | -0.694
UACUCAU | -0.766
AAUCGCU | -0.825
GUUUAGC | -0.409
UCGGGCA | 0.752
GCACCGC | -0.238
UUUACUG | -0.69
UGUUUCG | -0.311
UAGAUAA | 0.0459
GAGCCGC | -0.457
GCAACCC | -0.635
CUGCAAG | -0.493
GUCGUCA | 0.0532
GUAGGCU | 0.629
CCUCGAA | -0.73
GGUAAAA | 1.66

Sequence | RNAcompete 7-mer binding Z-score
GCCGGUA | -0.0925
GUUCCCC | -0.388
CGCUUGC | -0.81
UAAUAAC | -0.504
CUCACGA | -0.617
AGUCUCG | -0.402
UCAGUAU | -0.293
CCCAGAA | -0.646
UAGUAGG | 1.93
UAGUAUA | -0.205
CCUCGUG | -0.755
UUCCGAA | -0.606
AACGCAU | -0.395
CGAGCUC | -0.526
CUGUUCG | -0.672
UUUGCGC | -0.865
GGGACGA | 2.42
AAGCUAA | -0.26
AGGUCCA | -0.184
UCGGCUG | -0.289
CAAUCUG | -0.628
GGGCUCC | 0.264
CAGUCUC | -0.755
UUCGAGC | -0.57

Sequence | RNAcompete 7-mer binding Z-score
GCAGGAU | 1.22
CUGCAGU | -0.34
GAGUGAU | 0.731
ACGACCA | -0.362
AUCAAGG | 1.07
UGCCGCU | -0.715
ACGACAC | -0.428
AGAGGGG | 1.94
UCUGCCA | -0.945
GUUGCAU | -0.227
UAACAAG | 0.148
AAAUGCC | -0.544
UGUGAUA | -0.162
CCGAAGG | 0.166
UCAUGAU | -0.231
GUGUGGG | 3.75
AACCGAC | -0.668
GACAAUG | 1.23
GCUGUUC | -0.766
CUCAGCC | -0.846
GCGCACG | 0.148
GCACAUA | -0.355
CAUGAAU | -0.369
UCGCAGA | -0.369

Sequence | RNAcompete 7-mer binding Z-score
UCCACGA | -0.799
UUCACGA | -0.53
UCAGCCG | -0.861
CACUGUA | -0.373
CGAGGCG | 1.5
GCUCGAA | -0.479
UAAUACG | -0.26
CCAUAUG | -0.541
UGUUAUC | -0.486
GGGGCGU | 2.44
AACGAUG | 0.501
CGUCUUU | -0.613
AGCCGGC | -0.559
AGCCAAA | -0.369
CUUGGUC | -0.821
CAAACAU | -0.533
AUUCGCC | -0.887
CGUGAAA | -0.0707
CGUAGAC | -0.271
CUGAUAC | -0.504
AUCCCCG | -0.734
CAUAUUC | -0.832
UUUGGGA | 1.35
GACAGCU | -0.566

Sequence | RNAcompete 7-mer binding Z-score
CCCAAGC | -0.628
AUACAUA | -0.238
CUAGGUU | -0.187
AUUGUUG | -0.296
GAGUACG | 0.658
CUUAGUG | -0.264
ACGUGGG | 2.48
UCCCACA | -0.683
GGCGCUU | -0.402
UUCAGCU | -0.806
GUCGCGA | -0.26
UACGAGC | -0.278
CAUAGGG | 2.13
AUGCCUC | -0.843
AUAAGCG | 0.0677
UGCGCCG | -0.347
AAAAACU | -0.544
UGCCGUA | -0.584
